We go through 82 compounds from PubChem BioAssay (NCI).

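In this assay, cells in 96-well plates receive the compound at five concentrations for 48 hours. Endpoints are linearly interpolated between the surrounding concentrations. GI50 = concentration required for 50% inhibition of growth. The concentration for full growth arrest is given as TGI.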 Square brackets hold non-standard residues; d marks the D form. Peptide text beside a SMILES is read from it. * marks the point of attachment. ξ: configuration not given here. NMeF = CN[CH](Cc1ccccc1)C(=O)O; ξNMe2Val = CC(C)C(C(=O)*)N(C)C; NMeV = CN[CH](C(=O)O)C(C)C; OtBu = CC(C)(C)O* Bounds are passed on as bounds.

For this experiment, the system named is NCI-H322M lung. The experiment in a line: NCI tumour cell line growth inhibition, 48 h.
`CN1CCN(c2ccc(NC3=CC(=O)c4ncncc4C3=O)cc2)CC1`: the GI50 was 1.48 µM and the TGI came out at 2.81 µM.

Regarding `CC/C=C\C[C@H]1C/C=C2/C(=O)C(Cl)=C[C@@H]2C/C=C\CCCC(=O)O1`, the GI50 is 0.683 µM and the TGI amounted to 2.87 µM.

As to `O=C1/C(=C/c2ccc(C(F)(F)F)cc2)COc2ccc(O)c(O)c21`, the GI50 is 1.5 µM and the TGI is 2.86 µM. The corresponding values for `S=C(SSC(=S)N1CCCCC1)N1CCCCC1` are 15.3 µM and more than 100 µM. Compound `NC(=O)c1ncn(C2OC(CO)C(O)C2O)c1O` (stereo not drawn) yielded a TGI of more than 100 µM.

In turn, `O=C(NC1C/C(=N/O)c2c(Br)sc(Br)c21)C(F)(F)F` (stereo not drawn) registered a TGI of more than 100 µM. Still for that read-out and setting: the same measure for `CCCCOC(=O)NC(=O)c1cn(CCCOC(=O)CCCCCCCCC(=O)OCCCn2cc(C(=O)NC(=O)OCCCC)c(=O)n(C)c2=O)c(=O)n(C)c1=O`: more than 100 µM. As to `COc1cc(C2NC(=O)C(C#N)=C(Nc3cccc(C)c3)S2)ccc1O` (stereo not drawn), the GI50 is more than 100 µM and the TGI was more than 100 µM. Regarding `CCS(=O)(=O)c1ccc(OC)c(Nc2ncc(-c3cccc(F)c3)o2)c1`, the GI50 is more than 25 µM and the TGI is more than 25 µM. Regarding `NC1=Nc2ccccc2Sc2cccc(F)c21`, the TGI was more than 100 µM. Same read-out and setting: in the case of `C=C1CCOC2(C(O)C(C)(O)CO)NC(=O)C1(O)NC2=O` (stereo not drawn) it was more than 100 µM.

For the compound `CC12O[C@H](C[C@@H](OC(=O)CCC(=O)O)[C@H]1O)n1c3ccccc3c3c4c(c5c6ccccc6n2c5c31)C(=O)NC4=O`, the GI50 was 1.79 µM and the TGI was more than 50 µM. For `CCCCCCCCCCCC[N+]12CC[N+](C)(CC1)CC2`, the TGI was more than 100 µM. Same read-out and setting: the same measure for `Cc1ccc(Nc2nc(-c3ccc(-c4ccc([N+](=O)[O-])cc4)o3)cs2)cc1`: more than 100 µM. `CC1=C[C@@H]2c3c(c(O)c(O)c4oc5cc(O)cc(O)c5c(=O)c34)[C@@H](c3cc(O)c(O)c4oc5cc(O)cc(O)c5c(=O)c34)[C@@H]2C(C)(C)C1`: the GI50 is 3.6 µM and the TGI is 13.9 µM. The compound `Cc1[nH]c2nccn2c(=O)c1CCO` displayed a TGI of more than 10 µM. The compound `COc1ccc(C2=Nc3ccccc3N=C(SC)C2)cc1` yielded a TGI of more than 100 µM. On the same count and under the same terms, the same measure for `CCN(C(=O)N[C@H](C(=O)N[C@@H](CSC)C(=O)N[C@@H](C)C(=O)OC)C(C)C)c1ccccc1`: 30.1 µM; for `CC(C)C(C(=O)N(C)C(Cc1ccccc1)C(=O)N(C)C(C(=O)N(C)C(C(=O)N1CCCC1C(=O)OC(C)(C)C)C(C)C)C(C)C)N(C)C` (stereo not drawn) (ξNMe2Val-[NMeF][NMeV][NMeV]P-OtBu; configuration not given here): more than 100 µM. On the same count and under the same terms, the same measure for `Cc1cc(C)c2c(n1)S(=O)(=O)N(CCCN1CCN(c3cccc(Cl)c3)CC1)/C(=C(\O)c1ccc(Br)cc1)C2=O`: more than 100 µM; for `COc1ccc(-c2cc(-c3ccc(Nc4ccnc5cc(Cl)ccc45)cc3)[nH]c(=O)c2C#N)cc1`: more than 100 µM; for `COc1cccc(CCNc2c(C#N)c3n(c4ccccc4[n+]3C)c3ncccc23)c1`: 26.7 µM. For `Fc1ccc(C(OCCN2CCC3CCC(C2)N3C/C=C/c2cccs2)c2ccc(F)cc2)cc1` (stereo not drawn), the TGI was 25.1 µM. On the same count and under the same terms, in the case of `O=C(CCc1ccccc1)CC1OC(=O)C(Cl)=C1Cl` (stereo not drawn) it was 35.9 µM; in that of `CCOC(=O)c1nc2cc(Cl)ccc2[nH]c1=O`, more than 100 µM.

The compound `Cc1nn2c(c1C#N)NNc1c-2sc(=N)nnc1=O` registered a TGI of more than 100 µM. Still for that read-out and setting: in the case of `COc1ccc(C(O)c2ccccn2)cc1` (stereo not drawn) it was more than 100 µM. `CN1CCN(c2nc(N)c(Br)c(Cl)n2)CC1` returned a TGI of more than 100 µM. For the compound `CN(C)c1ccc2[nH]c3c(C(N)=O)cc(=O)c(=O)c=3oc2c1`, the GI50 is 6.48 µM and the TGI is more than 100 µM. Taken in the same sequence, the figures for `O=C(CI)Nc1ccc(Br)cc1` were 18.1 µM and 36 µM. `Cc1cc(O)c2c(c1)C(C1c3cccc(O)c3C(=O)c3c(O)cc(C)cc31)c1cccc(O)c1C2=O` (stereo not drawn) had a TGI of 20.2 µM. Same read-out and setting: in the case of `CCN(CC)c1c(C)nnn1C1OC(COC(C)=O)C(OC(C)=O)C(OC(C)=O)C1OC(C)=O` (stereo not drawn) it was more than 100 µM. With `CN(CCCCCl)P(=O)(OCc1ccc([N+](=O)[O-])o1)OCC1OC(n2cc([N+](=O)[O-])c(=O)[nH]c2=O)CC1O` (stereo not drawn), the GI50 was 19 µM and the TGI was more than 100 µM. Taken in the same sequence, the figures for `Cc1ccc(-c2nc3sc(C)cn3c2/C=C2\C(=O)Nc3ccc(Cl)cc32)cc1` were 18 µM and more than 100 µM. Regarding `Cc1ccc(NC(=O)C2C3CCC(O3)C2C(=O)O)cc1` (stereo not drawn), the TGI is more than 100 µM. On the same count and under the same terms, in the case of `COc1ccc2nc3ccccc3c(NCCCCN(CCCl)CCCl)c2c1` it was 4.5 µM. Turning to `Cc1cc(N(CCNc2ccnc3cc(Cl)ccc23)Cc2ccc3c(c2)OCO3)nc(N2CCCC2)n1`, the GI50 was 2.04 µM and the TGI came out at 7.86 µM.

`CC(=O)[C@@]1(c2ccccc2)CC2(CCN(C)CC2)O[C@H]1C` gave a TGI of more than 100 µM. On to `CC12CCc3ccccc3C1=NNC(=O)C2` (stereo not drawn), for which the TGI was more than 100 µM. The same measure, in the same setting: the same measure for `Cc1[nH]c2cc([N+](=O)[O-])ccc2c1[N+](=O)[O-]`: 63 µM. As to `O=C1C(Cl)=C(NCCCN(CCCNC2=C(Cl)C(=O)c3ccccc3C2=O)C2=C(Cl)C(=O)c3ccccc3C2=O)C(=O)c2ccccc21`, the GI50 was 2.44 µM and the TGI came out at 11.5 µM.

For the compound `C=C(C)CCC1C=[N+]([O-])OC(C)(C)C1(C)C` (stereo not drawn), the TGI is more than 100 µM.

Regarding `CC(=O)Nc1ccc(/C=c2\sc3nnc(-c4cccnc4)n3c2=O)cc1`, the TGI is more than 100 µM. For `O=C(Oc1c(Cl)cc(Cl)cc1Cl)c1ccccc1Nc1ccnc(C(F)(F)F)c1`, the GI50 is 20.2 µM and the TGI turned out to be 58.1 µM.

With `CNC(=O)CNC(=O)N(C[C@@H]1CCCN1C(=O)[C@H](CC(C)C)NC(=O)OC(C)(C)C)C(C)C`, the TGI was more than 100 µM. For `COc1ccc2c3/c(=C\c4ccc(N(C)C)cc4)c4ccccc4n3[n+](C)c2c1`, the GI50 is 0.219 µM and the TGI was determined as 0.625 µM. `COc1ccccc1C(=O)OCC1CCCN2CCCCC12` (stereo not drawn) gave a TGI of more than 100 µM.

`Cc1c(-c2ccccn2)ccc2ccccc12` came in with a TGI of more than 100 µM. As for `CSc1nc2c(c(=O)n1C)C(c1ccccc1)C1=C(N2)/C(=C/c2ccccc2)CCC1` (stereo not drawn), the GI50 is more than 100 µM and the TGI is more than 100 µM.

Regarding `COc1ccc(-c2oc3cc(O)c(OC)c(O)c3c(=O)c2O)cc1`, the TGI is more than 100 µM. In the case of `O=C1/C(=C/c2ccc([N+](=O)[O-])o2)Oc2ccc(Cl)cc21`, the GI50 is 25.4 µM and the TGI is more than 100 µM. On to `COc1ccc(Nc2nc(N)c(C(=O)c3ccc(Cl)cc3)s2)cc1`, for which the TGI worked out at 31.1 µM. As for `C[C@]12CCC(=O)C[C@@H]1CC[C@@H]1[C@@H]2CC[C@]2(C)[C@@H](OC(=O)N(CCCl)N=O)CC[C@@H]12`, the GI50 is 8.32 µM and the TGI was 30.9 µM.

In turn, `CC1OC(O[C@@H]2C=C3CC[C@@H]4[C@H](CC[C@]5(C)[C@@H](c6ccc(=O)oc6)CC[C@]45O)[C@@]3(C)CC2)C(O)C(OC2OC(CO)C(O)C(O)C2O)C1O` (stereo partly drawn) came in with a TGI of 0.00411 µM. The same measure, in the same setting: the same measure for `CCC(c1ccccc1)c1cc(C(C)(C)C)cc(C(C)(C)C)c1O` (stereo not drawn): 31.7 µM; for `COc1ccc(N2C(=O)/C(=C/c3ccc(N(CCC#N)CCC#N)cc3)N=C2c2ccccc2)cc1`: more than 100 µM; for `COC(=O)C(CCC1(C)OCCO1)=[N+]=[N-]`: more than 100 µM.

In turn, `CN1C(=O)C23CCCC2CC1(c1ccccc1)S3` (stereo not drawn) returned a TGI of more than 100 µM. On the same count and under the same terms, in the case of `Cc1ccc(S(=O)(=O)NNS(C)(=O)=O)cc1` it was more than 100 µM; in that of `CC(=O)NC(C)(C)C1CCC(C)CC1` (stereo not drawn), more than 100 µM. On to `CCN1C(=O)N(CC)C2C1N=C(SC)N2/N=C/C=C/c1ccccc1OC` (stereo not drawn), for which the GI50 is 0.815 µM and the TGI was more than 45.9 µM. `CCCN(CCC)C(=O)c1c(N2CCN(C)CC2)c2cccnc2n2c(C)cnc12` gave a TGI of more than 100 µM. As to `O=C1NC(=NCCc2ccc(Br)cc2)S/C1=C\c1ccc2ncccc2c1`, the GI50 was more than 25 µM and the TGI was more than 25 µM. With `CC1CN(CCO)CCN1c1ccccc1` (stereo not drawn), the TGI was more than 100 µM. With `CCC(Nc1ncnc2nc[nH]c12)C(=O)O` (stereo not drawn), the TGI is more than 100 µM. In the case of `COc1cc(C(=O)n2nc(N)c3c(C)cc(C)nc32)cc(OC)c1OC`, the GI50 was more than 100 µM and the TGI was more than 100 µM. `CCOC(=O)NN(C(=O)OCC)C(C(=O)c1ccccc1)N(NC(=O)OCC)C(=O)OCC` returned a TGI of more than 100 µM. Take `CN(C)S(=O)(=O)c1nc(Cl)c2[nH]cnc2n1`: the TGI is more than 100 µM.

`CC(C)(C)[Si](C)(C)OC1[C@@H](COC(=O)NC(=O)CCl)O[C@@H](n2cnc3c(N)ncnc32)[C@H]1O[Si](C)(C)C(C)(C)C` (stereo partly drawn): the GI50 was 9.78 µM and the TGI turned out to be 17.3 µM. In turn, `CSC(C1c2ccccc2N(C)c2[nH]c(=O)n(C)c(=O)c21)S(=O)(=O)c1ccc(C)cc1` (stereo not drawn) registered a TGI of more than 100 µM. Same read-out and setting: in the case of `CSc1nc(SC)c2c(C)cn(COCCOC(=O)c3ccccc3)c2n1` it was more than 100 µM; in that of `Nc1ccn(C2CCC(COP(=O)(O)OCC(O)COP(=O)(O)OCC3OC(n4cc(F)c(=O)[nH]c4=O)CC3O)O2)c(=O)n1` (stereo not drawn), more than 100 µM. The compound `COc1ccc(C2=NNC(=O)c3ccccc3N2c2nc(-c3cccs3)nc3cc(OC)c(OC)cc23)cc1` displayed a TGI of more than 100 µM.

In turn, `NC(=O)/N=C/c1c(O)c2ccccc2oc1=O` came in with a TGI of more than 100 µM. As to `COC(=O)CC1=C(C)/C(=C/c2[nH]c(-c3ccc[nH]3)cc2OC)N=C1C`, the GI50 was 0.757 µM and the TGI was 13 µM.

The compound `O=C(NC1=C(Cl)C(=O)c2ccccc2C1=O)C(=O)C(C(=O)c1ccc2ccccc2c1)C1OC(=O)c2ccccc21` (stereo not drawn) returned a TGI of 13.9 µM. In the case of `O=C(C(=CN1CCN(C(=O)c2ccco2)C1=S)C(=O)c1ccccc1)c1ccccc1`, the GI50 is 2.23 µM and the TGI worked out at 13.7 µM.

Compound `Cc1nc2ccc(NC3OCC(O)C(O)C3O)cc2c(=O)n1-c1ccccc1` (stereo not drawn) gave a TGI of more than 100 µM. Turning to `COc1ccc2c(c1)-c1c(c3cc(OC)ccc3n(CCN(C)C)c1=O)C2=O`, the GI50 is 0.423 µM and the TGI is 3.04 µM. Compound `COC(=O)c1ccccc1C1CN=NC12Cc1ccc3c(c1C2=O)CCC3` (stereo not drawn) gave a TGI of more than 100 µM. On the same count and under the same terms, the same measure for `N#CC(/C(CCCC(=O)Nc1cccc([N+](=O)[O-])c1)=N\NC(=O)c1c(O)ccc2ccccc12)c1nc2ccccc2s1` (stereo not drawn): more than 100 µM; for `CSc1ncc2c(n1)-c1ccccc1OC2`: more than 100 µM.
